Measured values reported in PubChem BioAssay AID588795 (National Center for Advancing Translational Sciences (NCATS), 2011).
The whole screen tested about 390,000 compounds, of which about 1,400 (0.36%) were called active. Inconclusive means that the source gave no clear call. Such entries were picked first, then a sample of the others. Calls come from the whole dose curve; as a rule, active = well fitted inhibition curve with a large enough effect; inconclusive = small, poorly fitted or top-dose-only effect; inactive = no such curve, though single readings can be large or run the other way. Potencies of inconclusive entries are doubtful fits and often do not repeat.

Each molecule was assayed against Flap endonuclease 1 (Homo sapiens) (UniProt P39748) (assay: qHTS Assay for the Inhibitors of Human Flap endonuclease 1 (FEN1).). Details: Recombinant FEN1 flap cleavage, fluorescence, 15 min; series mostly up to 114 µM; activity change, negative = inhibition: at the top concentration.
Sequence of UniProt P39748 (P39748 whole entry, looked up): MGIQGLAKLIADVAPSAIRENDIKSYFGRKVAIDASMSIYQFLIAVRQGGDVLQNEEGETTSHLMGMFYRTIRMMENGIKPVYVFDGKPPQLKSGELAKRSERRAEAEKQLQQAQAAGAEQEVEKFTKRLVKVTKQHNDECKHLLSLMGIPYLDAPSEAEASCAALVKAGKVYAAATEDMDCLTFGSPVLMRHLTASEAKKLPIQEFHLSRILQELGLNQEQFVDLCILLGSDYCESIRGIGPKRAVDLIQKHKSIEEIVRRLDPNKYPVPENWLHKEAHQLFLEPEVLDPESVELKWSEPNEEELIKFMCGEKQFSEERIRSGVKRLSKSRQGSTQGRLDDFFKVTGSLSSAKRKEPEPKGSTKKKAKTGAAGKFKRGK
Procedure, shortened: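 In this screen, 50 nM flap DNA substrate was added to 10 nM FEN1 pretreated with compound for 15 min at room temperature; cleavage was followed with reads at 0 and 15 min, and Hill fitting gave concentration–response parameters.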
% is set by controls: 0 for no effect and ±100 for the full control effect; potency is the fitted concentration of half-maximal effect; tags give direction and shape of the fitted curve.
Note: nearly all actives have a fitted effect of over 65% in size.

Structure (SMILES)	Potency	activity change, negative = inhibition
C=CC[C@@H](Cc1ccc(F)cc1)C(=O)OC[C@@H]1CCCN1C(=O)[C@H](CC=C)CC(=O)N(CCO)Cc1ccccc1	inconclusive: 89.1 µM [inhibitor, partial curve, poor fit]	–
COc1cc(/C=C2/SC(=S)N(c3c(C)n(C)n(-c4ccccc4)c3=O)C2=O)ccc1O	inconclusive: 89.1 µM [inhibitor, single point]	–
CCN(CC)C(=O)[C@H]1C[C@H](CC(=O)NC/C=C(\C)CCC=C(C)C)C(=O)N2CCc3c([nH]c4cc(-c5ccco5)ccc34)[C@]12C	inconclusive: 35.5 µM [inhibitor, partial curve, poor fit]	–
Cc1ccc(/C=N/Nc2ccnc3cc(Cl)ccc23)c(C)c1	inconclusive: 31.6 µM [inhibitor, single point]	–
COc1ccc(N2CCN(C(=O)c3cnn(-c4ccc(OC)cc4)c3C3CCN(C(=O)OC(C)(C)C)CC3)CC2)cc1	–	inactive: 12.6%
CCCCn1c(N)c(N(CC(C)C)C(=O)c2oc3ccc(Br)cc3c2C)c(=O)[nH]c1=O	–	inactive: 0.468%
O=C(CCCOC(=O)c1cccnc1Cl)c1ccc(Br)cc1	inconclusive: 79.4 µM [inhibitor, partial curve, poor fit]	–
O=C(CCl)NC1CCCc2ccccc21 (stereo not drawn)	–	inactive: -4.62%
CCOC(=O)c1ccccc1NC(=O)Cn1ccn2nc(-c3ccc(OCC)cc3)cc2c1=O	–	inactive: 18.1%
O=C(O)c1ccc2c3c(ncnc13)-c1ccccc1C2=O	inconclusive: 70.8 µM [inhibitor, single point]	–
O=[N+]([O-])CC(=Nc1ccc(Cl)cc1)N/N=C\c1oc(O)c2ccccc12	–	inactive: -3.4%
CC(C)(C)c1cc[n+](-c2[nH]c(=O)sc2/C=N/N=C(\[O-])c2ccccc2)cc1	inconclusive: 50.1 µM [inhibitor, partial curve, poor fit]	–
Cc1ccc(S(=O)(=O)N(C(=O)c2ccco2)c2cc3sc(=O)oc3c3ccccc23)cc1	–	inactive: -35.2%
CCCN(Cc1ccc(C)cc1)C(=O)c1ccc(CNS(=O)(=O)c2ccc(C(C)=O)cc2)cc1	inconclusive: 39.8 µM [inhibitor, partial curve, poor fit]	–
COc1cccc2sc(Nc3nc4ccc(NC(C)=O)cc4s3)nc12	inconclusive: 31.6 µM [inhibitor, partial curve]	–
CCN(C(=O)C1CCCN(c2nc(-c3ccc(OC)cc3)no2)C1)c1ccccc1F (stereo not drawn)	inconclusive: 28.2 µM [inhibitor, partial curve, poor fit]	–
COc1cc(/C=C2/C(C)=C(C#N)c3nc(N)c(C#N)c(C)c32)ccc1OCC(=O)O	inconclusive: 44.7 µM [inhibitor, partial curve]	–
CSc1nc(SCC(=O)O)c2sc3nc(-c4ccccc4)c4c(c3c2n1)CCC4	inconclusive: 50.1 µM [inhibitor, partial curve]	–
NNC(=O)c1cc(O)c(O)c(O)c1	active: 22.4 µM	–
CN(C)c1ccc(C(=O)Oc2cc(O/N=[N+](\[O-])N(C)C)c([N+](=O)[O-])cc2[N+](=O)[O-])cc1	inconclusive: 31.6 µM [inhibitor, partial curve, poor fit]	–
N#C/C(=C\c1ccc2c(c1)OCO2)C(N)=S	–	inactive: -10.3%

Structure (SMILES)	Potency	activity change, negative = inhibition
CCCOC(=O)c1ccc(-c2c(C)noc2-c2ccc(OC)cc2O)o1	inconclusive: 50.1 µM [inhibitor, partial curve, poor fit]	–
O=C(Nc1ccc2oc(-c3cccnc3)nc2c1)c1ccc2c(c1)OCCO2	inconclusive: 79.4 µM [inhibitor, single point]	–
COc1cc(OC)c(C(=O)Nc2cc(S(=O)(=O)N3CCOCC3)ccc2N2CCN(C)CC2)cc1OC	inconclusive: 89.1 µM [inhibitor, single point]	–
CCc1ccccc1NC1=NCC(=O)N1C1CCCC1	–	inactive: -3.77%
CCCCN1C(=O)N(c2nnc(C(C)(C)C)s2)C(O)C1c1ccc(C)cc1 (stereo not drawn)	inconclusive: 70.8 µM [inhibitor, partial curve, poor fit]	–
Cc1cc(C)cc(NC(=O)Cn2cc(C(=O)c3cccs3)c3ccccc32)c1	–	inactive: -22.5%
COc1ccc(Nc2c(-c3ccc(C)o3)nc3cc(C)ccn23)cc1	–	inactive: 1.93%
CCC(CC)c1nnc(NC(=O)CS(=O)(=O)c2ccccc2)s1	–	inactive: 5.54%
O=[N+]([O-])c1cc2c(cc1CN1CCN(CCOCCO)CC1)OCO2	inconclusive: 10 µM [inhibitor, partial curve]	–
C/C(=N/Nc1ccnc2cc(Cl)ccc12)c1ccc(N)cc1	inconclusive: 50.1 µM [inhibitor, partial curve, poor fit]	–
N#CC1=C(N)c2ccccc2CC12CCCCC2	inconclusive: 89.1 µM [inhibitor, partial curve, poor fit]	–
COc1cc2ccccc2cc1C(=O)NC(=S)Nc1ccc(C(=O)O)cc1	inconclusive: 50.1 µM [inhibitor, partial curve]	–
Cc1cc(C)c(NC(=O)Cn2nnc(S(=O)(=O)c3ccc(C)c(C)c3)c2N)c(C)c1	inconclusive: 79.4 µM [inhibitor, partial curve, poor fit]	–
O=S(=O)(Nc1ccc(O)c(NS(=O)(=O)c2ccccc2)c1)c1ccccc1	–	inactive: 10.2%
O=c1cccc2c1c1cc[nH]c3ccc(=O)n2c31	inconclusive: 17.8 µM [inhibitor, partial curve, poor fit]	–
CCOc1ccc(-n2c(=O)c3ccccc3c3ccccc3c2=O)cc1	–	inactive: -7.78%
O=c1c(-c2c(O)cc(O)c3c2O[C@H](c2ccc(O)cc2)CC3)c(-c2ccc(O)cc2)oc2cc(O)cc(O)c12	inconclusive: 89.1 µM [inhibitor, single point]	–
ClC(Cl)(c1nnnn1-c1ccccc1)c1nnnn1-c1ccccc1	active: 50.1 µM	–
Cc1ccc(Nc2nc3ccccc3c3nncn23)cc1C	inconclusive: 79.4 µM [inhibitor, partial curve, poor fit]	–
Fc1ccc2cnc(-c3ccccc3)c(-c3ccc(C(F)(F)F)cc3)c2c1	inconclusive: 79.4 µM [inhibitor, partial curve, poor fit]	–
O=C(Nc1cccc(S(=O)(=O)NC2=NCCC2)c1)c1cc(-c2ccco2)nc2ccccc12	inconclusive: 50.1 µM [inhibitor, partial curve, poor fit]	–

Structure (SMILES)	Potency	activity change, negative = inhibition
COc1ccc(Nc2ncnc3sc(-c4ccccc4)cc23)cc1OC	inconclusive: 28.2 µM [inhibitor, full curve]	–
COc1ccc2[nH]cc(/C=C/c3cc[n+](C)cc3)c2c1	inconclusive: 31.6 µM [inhibitor, partial curve]	–
N#C/C(=C\c1ccc(-c2cc(Cl)ccc2Cl)o1)C(=O)Nc1ccccc1C(=O)O	inconclusive: 4.47 µM [inhibitor, full curve, poor fit]	–
CC(=O)Nc1ccc2c(c1)C(=Nc1cccc(C)c1)c1ccccc1-2	inconclusive: 89.1 µM [inhibitor, single point]	–
COc1ccc(-n2c(Cn3nnc4ccccc43)n[nH]c2=S)cc1	–	inactive: -1.84%
COc1cccc(C(=O)c2cn(CC(=O)Nc3cccc(C)c3C)c3nc(C)ccc3c2=O)c1	–	inactive: 2.41%
Cc1ccc(-c2nc3s/c(=C\c4ccco4)c(=O)n3n2)cc1	–	inactive: -5.19%
Cc1cccc(-n2c(O)c(C=Nc3ccc(O)cc3)c3ccccc3c2=O)n1	inconclusive: 50.1 µM [inhibitor, partial curve, poor fit]	–
COc1ccc(NC(=O)CC2Nc3ccccc3NC2=O)c([N+](=O)[O-])c1 (stereo not drawn)	–	inactive: -9.84%
CCOc1ccc(Oc2ccc(C(F)(F)F)cc2N)cc1	inconclusive: 50.1 µM [inhibitor, partial curve, poor fit]	–
C=CCCC1CN(CCCC)S(=O)(=O)c2c(F)cccc2O1 (stereo not drawn)	inconclusive: 89.1 µM [inhibitor, partial curve, poor fit]	–
CCN(c1ccc(NC(=O)COC(=O)C2CCN(c3ccc(C(F)(F)F)cn3)CC2)cc1)C(C)C	inconclusive: 17.8 µM [inhibitor, partial curve, poor fit]	–
Cc1nc2c(C(=O)NC(C)c3ccccc3)cnn2c(C)c1Cc1ccccc1 (stereo not drawn)	inconclusive: 56.2 µM [inhibitor, partial curve, poor fit]	–
O=C(CSCc1ccco1)NC1CCCC1	inconclusive: 100 µM [inhibitor, single point]	–
COc1ccc(N2CC(NC(=O)c3ccc(S(=O)(=O)N4CCCCC4)cc3)CC2=O)cc1OC (stereo not drawn)	–	inactive: 16%
C[C@]12c3[nH]c4ccccc4c3CCN1C(=O)C(CC(=O)NCC13CC4CC(CC(C4)C1)C3)C[C@@H]2C(=O)N1CCOCC1 (stereo partly drawn)	inconclusive: 89.1 µM [inhibitor, partial curve, poor fit]	–
Clc1ccc(/C=C/c2ccc3ccccc3n2)cc1Cl	inconclusive: 50.1 µM [inhibitor, partial curve, poor fit]	–
Cc1cccc(N2CC(C(=O)NCC3COc4ccccc4O3)CC2=O)c1C (stereo not drawn)	inconclusive: 89.1 µM [inhibitor, partial curve, poor fit]	–
CC(C)(C)c1cc(NC(=O)COc2ccc(Br)cc2)n(-c2ccccc2)n1	inconclusive: 50.1 µM [inhibitor, partial curve, poor fit]	–
Nc1cccc2[nH]c(=O)c3ccccc3c12	inconclusive: 89.1 µM [inhibitor, partial curve, poor fit]	–
Cc1ccc(CCNC(=O)c2ccc(CSCc3ccccc3C)o2)cc1	inconclusive: 89.1 µM [inhibitor, single point]	–
